Results are given in words; binding and its absence hold for the method and conditions named. In cells and extracts the contact can be indirect. Some binding calls cover weakened binding; strength is not graded here.
Assays:
[1] = biological target: P2Y1 receptor (mouse (endogenous in bone marrow granulocytes of C57BL/10 mice)) (UniProt P49650); test: FRET or BRET; fixed, permeabilized granulocytes; goat anti-P2Y1 with Alexa Fluor 488 secondary (donor), rabbit anti-P2Y2 or anti-P2Y4 with Alexa Fluor 546 secondary (acceptor); confocal microscopy, excitation 488 nm, emission 560-650 nm
[2] = biological target: P2Y1 receptor (mouse (endogenous in bone marrow granulocytes of C57BL/10 mice)) (UniProt P49650); test: co-IP; granulocyte lysate (1 % Triton X-100 lysing buffer, 600 ug protein), precleared with rabbit normal serum; IP with rabbit polyclonal anti-P2Y1, anti-P2Y2 or anti-P2Y4 IgG and protein A-Sepharose, 4 °C overnight; Western blot with rabbit anti-P2Y antibodies, chemiluminescence
[3] = biological target: P2Y1 receptor (mouse (endogenous in bone marrow granulocytes of C57BL/10 mice)) (UniProt P49650); test: co-IP; whole protein lysate of granulocytes (1,000 ug); IP with goat polyclonal anti-P2Y1 on protein A-Sepharose, 4 °C, 12 h; blot with rabbit anti-P2Y2 and rabbit anti-P2Y1 and infrared fluorescent secondary antibodies (Odyssey)
[4] = biological target: P2Y1 receptor (mouse (endogenous in bone marrow granulocytes of C57BL/10 mice)) (UniProt P49650); test: FRET or BRET; antibody-labelled fixed granulocytes; emission spectra 515-600 nm at 488 nm excitation in a microplate spectrofluorometer (FLEX station 3); FRET ratio 575 nm/525 nm
[5] = biological target: P2Y2 receptor (mouse (endogenous in bone marrow granulocytes of C57BL/10 mice)) (UniProt P35383); test: co-IP; granulocyte lysate (1 % Triton X-100 lysing buffer, 600 ug protein), precleared with rabbit normal serum; IP with rabbit polyclonal anti-P2Y1, anti-P2Y2 or anti-P2Y4 IgG and protein A-Sepharose, 4 °C overnight; Western blot with rabbit anti-P2Y antibodies, chemiluminescence
[6] = biological target: P2Y4 receptor (mouse (endogenous in bone marrow granulocytes of C57BL/10 mice)) (UniProt Q9JJS7); test: as above

Sequences of proteins named here, by UniProt entry; tags and fusion partners are left off.
UniProt P49650: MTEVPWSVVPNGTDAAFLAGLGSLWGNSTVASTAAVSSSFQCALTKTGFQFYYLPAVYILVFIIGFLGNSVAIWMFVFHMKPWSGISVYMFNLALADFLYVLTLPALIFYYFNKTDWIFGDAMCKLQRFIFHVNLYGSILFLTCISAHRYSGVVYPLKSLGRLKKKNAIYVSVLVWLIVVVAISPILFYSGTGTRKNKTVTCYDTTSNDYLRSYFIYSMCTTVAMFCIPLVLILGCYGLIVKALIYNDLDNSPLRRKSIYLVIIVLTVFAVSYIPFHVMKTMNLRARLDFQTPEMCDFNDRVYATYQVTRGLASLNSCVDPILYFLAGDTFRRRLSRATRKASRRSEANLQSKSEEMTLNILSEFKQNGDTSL
UniProt P35383: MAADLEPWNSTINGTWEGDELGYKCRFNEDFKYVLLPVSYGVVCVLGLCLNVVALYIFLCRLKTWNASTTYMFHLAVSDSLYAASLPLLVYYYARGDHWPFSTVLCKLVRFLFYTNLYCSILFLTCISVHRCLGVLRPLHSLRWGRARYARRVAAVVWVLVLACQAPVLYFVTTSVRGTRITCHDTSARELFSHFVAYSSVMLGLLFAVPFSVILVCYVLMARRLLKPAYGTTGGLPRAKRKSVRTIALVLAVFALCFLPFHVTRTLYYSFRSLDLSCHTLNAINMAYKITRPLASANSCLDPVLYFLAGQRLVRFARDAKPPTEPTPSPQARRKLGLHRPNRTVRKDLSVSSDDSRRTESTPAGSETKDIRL
UniProt Q9JJS7: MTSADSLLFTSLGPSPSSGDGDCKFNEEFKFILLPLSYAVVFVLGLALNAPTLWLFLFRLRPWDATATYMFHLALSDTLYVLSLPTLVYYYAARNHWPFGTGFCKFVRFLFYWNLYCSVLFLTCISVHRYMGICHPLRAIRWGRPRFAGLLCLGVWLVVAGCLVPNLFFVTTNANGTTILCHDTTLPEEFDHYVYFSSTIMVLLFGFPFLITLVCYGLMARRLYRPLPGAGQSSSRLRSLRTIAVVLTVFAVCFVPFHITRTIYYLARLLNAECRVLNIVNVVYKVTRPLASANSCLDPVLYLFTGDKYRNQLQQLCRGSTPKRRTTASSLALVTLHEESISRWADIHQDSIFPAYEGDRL

Row | binding [1] | binding [2] | binding [3] | binding [4] | binding [5] | binding [6] | Substance
1 | binds | binds | binds | binds |  |  | P2Y2 receptor (from UniProt P35383 1-373)
2 |  |  |  |  | binds | binds | P2Y1 receptor (from UniProt P49650 1-373)
3 | binds | binds |  | binds | no binding |  | P2Y4 receptor (from UniProt Q9JJS7 1-361)
